Laboratory results from paper PMC4741835.
No constants are given. Whether binding was seen depends on the method and setting. Some binding calls cover weakened binding; strength is not graded here. Where a sequence is shown, tags or fusion partners need not be part of it.

T1: full-length HRGβ2 (heregulin isoform β2) fused to the GAL4 DNA-binding domain (pGBKT7-HRGβ2 bait) (human) (UniProt Q02297)
T1 sequence: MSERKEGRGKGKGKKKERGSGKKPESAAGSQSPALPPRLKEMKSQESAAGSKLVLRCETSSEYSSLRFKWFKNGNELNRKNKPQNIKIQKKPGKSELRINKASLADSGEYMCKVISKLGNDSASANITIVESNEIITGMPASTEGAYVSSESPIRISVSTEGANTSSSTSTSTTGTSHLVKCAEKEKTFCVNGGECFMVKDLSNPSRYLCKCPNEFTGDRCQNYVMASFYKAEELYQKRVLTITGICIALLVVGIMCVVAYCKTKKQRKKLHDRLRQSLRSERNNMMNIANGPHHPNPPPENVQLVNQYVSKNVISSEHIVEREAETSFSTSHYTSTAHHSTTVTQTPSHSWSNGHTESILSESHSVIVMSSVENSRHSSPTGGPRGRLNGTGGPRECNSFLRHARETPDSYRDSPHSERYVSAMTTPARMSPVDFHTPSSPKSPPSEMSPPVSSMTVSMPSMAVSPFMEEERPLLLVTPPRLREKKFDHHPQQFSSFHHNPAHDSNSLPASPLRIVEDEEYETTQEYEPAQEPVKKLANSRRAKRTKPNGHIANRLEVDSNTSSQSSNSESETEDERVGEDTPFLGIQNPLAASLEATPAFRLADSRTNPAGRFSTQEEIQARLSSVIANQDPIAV

B1: RAP1 amino acid residues 127-259 (positive clone #480 of the human mammary gland cDNA library in pACT2) (domain or fragment, UniProt Q9NYB0 127-259)
chain: PQRHAGRIAFTDADDVAILTYVKENARSPSSVTGNALWKAMEKSSLTQHSWQSLKDRYLKHLRGQEHKYLLGDAPVSPSSQKLKRKAEEDPEAADSGEPQNKRTPDLPEEEYVKEEIQENEEAVKKMLVEATR
B2: SC-35 amino acid residues 116-221, C-terminal serine/arginine-rich domain (positive clone #415) (domain or fragment, UniProt Q01130 116-221)
chain: GRRSRSPRRRRRSRSRSRSRSRSRSRSRYSRSKSRSRTRSRSRSTSKSRSARRSKSKSSSVSRSRSRSRSRSRSRSPPPVSKRESKSRSRSKSPPKSPEEEGAVSS
B3: full-length RAP1 fused to the GAL4 activation domain (pACT2-hRap1) (protein, UniProt Q9NYB0 1-399)
chain: MAEAMDLGKDPNGPTHSSTLFVRDDGSSMSFYVRPSPAKRRLSTLILHGGGTVCRVQEPGAVLLAQPGEALAEASGDFISTQYILDCVERNERLELEAYRLGPASAADTGSEAKPGALAEGAAEPEPQRHAGRIAFTDADDVAILTYVKENARSPSSVTGNALWKAMEKSSLTQHSWQSLKDRYLKHLRGQEHKYLLGDAPVSPSSQKLKRKAEEDPEAADSGEPQNKRTPDLPEEEYVKEEIQENEEAVKKMLVEATREFEEVVVDESPPDFEIHITMCDDDPPTPEEDSETQPDEEEEEEEEKVSQPEVGAAIKIIRQLMEKFNLDLSTVTQAFLKNSGELEATSAFLASGQRADGYPIWSRQDDIDLQKDDEDTREALVKKFGAQNVARRIEFRKK
B4: RAP1 ΔRCT (amino acids 1-290, with an N-terminal nuclear localization signal PRRK) fused to the GAL4 activation domain (domain or fragment, UniProt Q9NYB0 1-290)
chain: PRRKMAEAMDLGKDPNGPTHSSTLFVRDDGSSMSFYVRPSPAKRRLSTLILHGGGTVCRVQEPGAVLLAQPGEALAEASGDFISTQYILDCVERNERLELEAYRLGPASAADTGSEAKPGALAEGAAEPEPQRHAGRIAFTDADDVAILTYVKENARSPSSVTGNALWKAMEKSSLTQHSWQSLKDRYLKHLRGQEHKYLLGDAPVSPSSQKLKRKAEEDPEAADSGEPQNKRTPDLPEEEYVKEEIQENEEAVKKMLVEATREFEEVVVDESPPDFEIHITMCDDDPPTPEED
B5: RAP1 ΔBRCT (amino acids 129-399) fused to the GAL4 activation domain (domain or fragment, UniProt Q9NYB0 129-399)
chain: RHAGRIAFTDADDVAILTYVKENARSPSSVTGNALWKAMEKSSLTQHSWQSLKDRYLKHLRGQEHKYLLGDAPVSPSSQKLKRKAEEDPEAADSGEPQNKRTPDLPEEEYVKEEIQENEEAVKKMLVEATREFEEVVVDESPPDFEIHITMCDDDPPTPEEDSETQPDEEEEEEEEKVSQPEVGAAIKIIRQLMEKFNLDLSTVTQAFLKNSGELEATSAFLASGQRADGYPIWSRQDDIDLQKDDEDTREALVKKFGAQNVARRIEFRKK
B6: RAP1 ΔMyb (amino acids 1-132 and 192-399) fused to the GAL4 activation domain (domain or fragment, UniProt Q9NYB0)
chain: MAEAMDLGKDPNGPTHSSTLFVRDDGSSMSFYVRPSPAKRRLSTLILHGGGTVCRVQEPGAVLLAQPGEALAEASGDFISTQYILDCVERNERLELEAYRLGPASAADTGSEAKPGALAEGAAEPEPQRHAGEHKYLLGDAPVSPSSQKLKRKAEEDPEAADSGEPQNKRTPDLPEEEYVKEEIQENEEAVKKMLVEATREFEEVVVDESPPDFEIHITMCDDDPPTPEEDSETQPDEEEEEEEEKVSQPEVGAAIKIIRQLMEKFNLDLSTVTQAFLKNSGELEATSAFLASGQRADGYPIWSRQDDIDLQKDDEDTREALVKKFGAQNVARRIEFRKK
B7: RAP1 ΔRΔC (ΔRCT/ΔCoil-Coil, amino acids 1-227, with an N-terminal nuclear localization signal PRRK) fused to the GAL4 activation domain (domain or fragment, UniProt Q9NYB0 1-227)
chain: PRRKMAEAMDLGKDPNGPTHSSTLFVRDDGSSMSFYVRPSPAKRRLSTLILHGGGTVCRVQEPGAVLLAQPGEALAEASGDFISTQYILDCVERNERLELEAYRLGPASAADTGSEAKPGALAEGAAEPEPQRHAGRIAFTDADDVAILTYVKENARSPSSVTGNALWKAMEKSSLTQHSWQSLKDRYLKHLRGQEHKYLLGDAPVSPSSQKLKRKAEEDPEAADSGEPQN
B8: RAP1 ΔLink (amino acids 1-198 and 224-399) fused to the GAL4 activation domain (domain or fragment, UniProt Q9NYB0)
chain: MAEAMDLGKDPNGPTHSSTLFVRDDGSSMSFYVRPSPAKRRLSTLILHGGGTVCRVQEPGAVLLAQPGEALAEASGDFISTQYILDCVERNERLELEAYRLGPASAADTGSEAKPGALAEGAAEPEPQRHAGRIAFTDADDVAILTYVKENARSPSSVTGNALWKAMEKSSLTQHSWQSLKDRYLKHLRGQEHKYLLGEPQNKRTPDLPEEEYVKEEIQENEEAVKKMLVEATREFEEVVVDESPPDFEIHITMCDDDPPTPEEDSETQPDEEEEEEEEKVSQPEVGAAIKIIRQLMEKFNLDLSTVTQAFLKNSGELEATSAFLASGQRADGYPIWSRQDDIDLQKDDEDTREALVKKFGAQNVARRIEFRKK

These binders were tested against T1, full-length HRGβ2 (heregulin isoform β2) fused to the GAL4 DNA-binding domain (pGBKT7-HRGβ2 bait) (human) (assay: two-hybrid; library screen: pGBKT7-HRGβ2 bait against the human mammary gland Matchmaker cDNA library in pACT2, yeast strain AH109, selection on medium lacking Ade, His, Leu and Trp with X-α-Gal).
B1 was tested, and the binding was “binds”.
For B2, the binding was “binds”.

What follows are binders tested against T1, full-length HRGβ2 (heregulin isoform β2) fused to the GAL4 DNA-binding domain (pGBKT7-HRGβ2 bait) (human) (assay: two-hybrid; pairwise co-transformation of AH109 with GAL4 AD fusions of full-length or deleted RAP1 and the GAL4 DNA-BD fusion of full-length HRGβ2; growth on selective medium and β-galactosidase activity).
For B3, the binding was “binds”.
In the case of B4, the binding is reported as “binds”.
For B5, the binding was “binds”.
For B6, the binding was “binds”.
With B7 the binding was “binds”.
With B8 the binding was “no binding”.
